Assay results from the RNAGym collection of RNA variant scans (doi:10.7554/elife.90254).
The source gives no read counts; variants with many changes may rest on few reads.

B1: LINE1-mini (parent)
chain: GGCAGAGCUCAACACAGCGUGGCAAAGUGGCUGUGGCUAGACUGCC

Variants of: B1
Assay: self-cleavage, relative activity (ratio to wild type); higher = more cleavage; in vitro, sequencing; the parent is a self-cleaving ribozyme

Row | Variant | self-cleavage
1 | C10G G22A G27A G30U | 0.05
2 | C10A G30U C37G C45U | 0
3 | C10A G21U G35C G36C A41C | 0.01
4 | C10A G21A C23G | 0.03
5 | C10G G21U G30C G35U | 0.01
6 | C10A G19A A24U | 0.33
7 | C10G A24C G27A G40A | 0.03
8 | C10A G36A G40U | 0.05
9 | C10A U34C U38C A39G | 0.01
10 | C10A G19A G21U | 0.09
11 | C10A G19A G21A | 0.86
12 | C10G C31G C37A | 0.01
13 | C10G G17C A39G | 0.02
14 | C10G A14U G19A C42A | 0.01
15 | C10A U20A G44C | 0.03
16 | C10A G19A A25U | 0.06
17 | C10G G19A G35A G44C | 0.01
18 | C10A G40C U43A | 0.05
19 | C10G G19A C31U C37G | 0.02
20 | C10A U34G G36U | 0
21 | C10G A16U A24U | 0.01
22 | C10A G21C G22C C45A | 0.01
23 | C10G A11G G21A A24U G30C C31A | 0.01
24 | C10G A12C U20G | 0.01

Row | Variant | self-cleavage
25 | C10A U20C G36A A41C | 0.06
26 | C10G C13G G36C C37U | 0
27 | C10A U43A C46A | 0.01
28 | C10A G36U G44U | 0.01
29 | C10G C15G C18G G35U | 0.01
30 | C10G A25U G36C C45G | 0.01
31 | C10A G22C A26U U28A A39G | 0.01
32 | C10G G19A G22C U43A | 0
33 | C10G G22C G30A | 0.07
34 | C10A G33A G36C | 0.03
35 | C10A U20G C23U A39U | 0.15
36 | C10A G33A U38A | 0.03
37 | C10A U20A G22U | 0
38 | C10G C15U G27A C31A C37U | 0.01
39 | C10G G19U C31U | 0.13
40 | C10A G27U C31A | 0.12
41 | C10G A12U U28C G33C C45U | 0.01
42 | C10G C23U G40A C45U C46G | 0.02
43 | C10G G27A G29A G40A | 0.03
44 | C10G G19U G40U | 0
45 | C10G C23G A41U C42U | 0.03
46 | C10G G17A G40C | 0.01
47 | C10G A11U A16U G33A | 0.01
48 | C10A G27U U34C | 0.08

Row | Variant | self-cleavage
49 | C10G G27A C31U | 0.04
50 | C10G A11U C13G | 0.02
51 | C10G G21U G27A G36C C42A | 0.01
52 | C10A U38G G40C | 0
53 | C10G A26G G36A G40U U43G | 0
54 | C10G C15U G17C G29U U32A G36A U38G | 0.01
55 | C10G G22U G27C | 0.05
56 | C10G A14G G19A G21U G40U | 0.01
57 | C10G C37U U43G C46G | 0
58 | C10G A14C A39U | 0.02
59 | C10G A11G G19C U32A | 0.01
60 | C10G A16G U38C G40A C46U | 0
61 | C10A G22C G27C | 0
62 | C10A G19C A26C | 0.04
63 | C10A G29A C42A | 0.02
64 | C10G G27U C37G | 0.02
65 | C10A G21U A24C U28A C31A | 0.03
66 | C10A G21A C42A | 0.13
67 | C10A G21A A25C G36C | 0.01
68 | C10G C15A A24G G30U | 0.03
69 | C10G G17U G19A A24U U34C | 0.02
70 | C10G G17C U34G G40A | 0.01
71 | C10A G21C G22U C37U | 0.03
72 | C10G C18U G21A C45A | 0.02

Row | Variant | self-cleavage
73 | C10A U34G G36U C46A | 0.01
74 | C10G A11U C45U | 0.02
75 | C10A G27U U34G G35A | 0.01
76 | C10G G22A G33A U34G U38A | 0.01
77 | C10G C15U G22A C23A | 0.12
78 | C10G G19C G22U | 0.12
79 | C10G C23U G36A | 0.03
80 | C10G G17U G40U | 0.01
81 | C10G A11C A26U G27C A41U | 0.01
82 | C10A U34A C45U | 0.05
83 | C10G G21A C37G | 0.01
84 | C10G A16G A39G | 0.03
85 | C10A G21A A24G A25U C46U | 0.03
86 | C10G G27U U28C G40A U43G | 0
87 | C10G G27C U28C | 0.1
88 | C10A G17U U34C G44U | 0.01
89 | C10A G21C G27C | 0.02
90 | C10G A26U U32C | 0.02
91 | C10A G27U G40C | 0.03
92 | C10G C23A G27U | 0.02
93 | C10G A12G C13A C46A | 0.04
94 | C10G A12U U32A | 0.02
95 | C10G A26U G36A C42U | 0.01
96 | C10A G21C G40A | 0.02

Row | Variant | self-cleavage
97 | C10G C23U G33U A41U | 0.01
98 | C10G C23U G33U A41G | 0.01
99 | C10G C18A U43C | 0.01
100 | C10G A11G C37U C46A | 0
101 | C10A G35A C37G U38A | 0.01
102 | C10A U32A C42G | 0
103 | C10G A11G A12C A16G | 0
104 | C10G A11C G22A | 0.02
105 | C10G G17A U28A G35U G40A | 0.02
106 | C10G C15G A24U C31A C42A | 0
107 | C10G C13U C15U A26U | 0.03
108 | C10G C15G C23A G30U | 0
109 | C10A U38C U43A | 0.01
110 | C10A G27U G30U C45G | 0.01
111 | C10A G21U C23G C37A | 0.01
112 | C10G G22A U43C | 0.02
113 | C10G A11C G29A C42A | 0
114 | C10G A24C U28G G30C C46U | 0.15
115 | C10G A11G G36C | 0.01
116 | C10A G21C G22U | 0.07
117 | C10G A11U G29A C45G | 0.02
118 | C10A G29U U38G | 0.08
119 | C10A G19U U28G U34A | 0.03
120 | C10A G27A U34C U43C | 0.03

Row | Variant | self-cleavage
121 | C10A G19C G21U | 0
122 | C10G A14C G19A G35C G36A | 0
123 | C10A G21C G22U G29A | 0
124 | C10G C23U C31G | 0.1
125 | C10G C31G G40U | 0.01
126 | C10A U28G C31U | 0.2
127 | C10A G17U G19A | 1.34
128 | C10A G19U G22U G36C C37U | 0.03
129 | C10G G19A G22A | 0.1
130 | C10G G17U G33A G44U | 0.04
131 | C10G A11U A12C C46A | 0.01
132 | C10A U38A A39U | 0.16
133 | C10A U38C C46U | 0.05
134 | C10G C13U U38C A41U | 0.01
135 | C10A G21A A24G | 0.35
136 | C10G A11G G17A C23A C31G A41U | 0
137 | C10G G27U C42G | 0.01
138 | C10G G21U U34A G44U | 0.01
139 | C10A G30U G35C C46U | 0.03
140 | C10G C31U C46A | 0.02
141 | C10G G17A G29C | 0.08
142 | C10A U38G C45U | 0.07
143 | C10A G33C U34G C46U | 0.02
144 | C10G A11C C23A G36U A41G G44A | 0.01

Row | Variant | self-cleavage
145 | C10A G19C G22A C46A | 0.04
146 | C10A U32A G33A A39U C46A | 0.01
147 | C10G A11U C18A C37A C45G C46U | 0
148 | C10G C15G G30A U32G A39U G40C | 0.01
149 | C10A U32G G35U G40C | 0.06
150 | C10A G22C U28A G29A | 0.01
151 | C10G C15A G35U C46A | 0.03
152 | C10A G22U C31G | 0.05
153 | C10G G22U C23A G29A | 0.03
154 | C10G G17A G19C G27C C31U | 0.03
155 | C10G C15U U28G G40U | 0.04
156 | C10A U20G A24U C37A | 0.02
157 | C10A G19U G21A A39G C45U | 0.09
158 | C10G A11G G21U C31U C42U | 0.01
159 | C10G A14G A16U C37G | 0.01
160 | C10A G27A U38A | 0.43
161 | C10G G17U G29C C37U | 0.01
162 | C10A G21A C23A U28A | 0.01
163 | C10G C13A G19U C37A | 0
164 | C10A G29C U34A A39C C42A | 0.02
165 | C10A G29C G33U G35A C42A | 0
166 | C10G G17C U32C A39U | 0.03
167 | C10G A14C G29A G30A | 0.01
